The campaign covered roughly 410,000 compounds. About 7,200 (1.8%) were called active. Inconclusive results, whose numbers are uncertain, are shown with a selection of clear calls. Calls follow the shape of the dose curve; as a rule, active = well fitted activation curve with a large enough effect; inconclusive = small, poorly fitted or top-dose-only effect, or another doubt; inactive = no such curve, though single readings can be large or run the other way. Potencies of inconclusive entries are left out as doubtful fits.
Assay: qHTS of TDP-43 Inhibitors; also: nearly all actives have a fitted effect of over 50% in size; as to growth rescue (activation): % of control where 0% means no effect
Settings: TDP-43 expressing yeast growth rescue, BacTiter-Glo, 24 h; growth rescue (activation): at 46.1 µM (top of the series) unless noted
Procedure, shortened: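 Yeast cells expressing TDP-43 under galactose induction are exposed to compounds for 24 hr at 30 deg C. BacTiter-Glo luminescence measures growth, so protective compounds score as activators.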
For `Cc1c(-c2ccccc2)oc2c(C(=O)N3CCN(c4ccccc4F)CC3)cccc2c1=O`, the Potency was inconclusive [activator, partial curve]. In the case of `O=C(CCl)Nc1cc(S(=O)(=O)N2CCCCCC2)ccc1Cl`, the Potency is reported as inconclusive [activator, partial curve]. In the case of `CCc1ccc(OCC(=O)Nc2cc(-c3nc4cc(C)ccc4o3)ccc2C)cc1`, the Potency is reported as “inactive”. For `Cc1ccsc1/C=N/NC(=O)CSCc1ccc(Cl)cc1`, the Potency was active: 14.1 µM. For `Cn1cnc2c1c(=O)n(Cc1cccc(Cl)c1)c(=O)n2C`, the Potency was inconclusive [activator, partial curve]. In the case of `COc1ccc(C(C(=O)NCC2CCCO2)N(Cc2ccco2)C(=O)c2snc(C(N)=O)c2N)cc1OC` (configuration not stated), the Potency is reported as “inactive”. For `O=C(COC(=O)c1ccc2ncsc2c1)Nc1ccc(Cl)cc1`, the Potency was inconclusive [activator, single point]. For `CCOc1nc(OCC)nc(N2CCC(C)CC2)n1`, the Potency was “inactive”. With `Cc1ccc2oc(=O)n(Cc3ccccc3Cl)c2c1` the Potency was “inactive”. For `O=C(O)/C(=C\c1ccccc1)c1ccc2ccccc2c1`, the Potency was inconclusive [activator, single point]. In the case of `Cc1ccc(CNS(=O)(=O)c2ccc3c(c2)N(C)CCO3)cc1`, the Potency is reported as active: 15.8 µM. For `CC(C)CCSc1nc(N)c(C#N)cc1C#N`, the Potency was “inactive”. With `COc1cccc2c1C1COC3C4CC(C(=O)O)C(C(C2)N13)N4C` (configuration not stated) the Potency was “inactive”. In the case of `Cc1ccc(C)c(NC(=O)c2cnn(-c3ccccc3)c2C)c1`, the Potency is reported as inconclusive [activator, single point]. In the case of `S=C(c1ccc(Br)cc1)N1CCCC1`, the Potency is reported as inconclusive [activator, full curve]. With `CC1(C)COC2(OC1)C(=O)N(CN1CCOCC1)c1ccccc12` the Potency was inconclusive [activator, partial curve]. With `Cc1ccc(-c2n[nH]c(=S)n2/N=C/c2cccs2)cc1` the Potency was inconclusive [activator, partial curve]. For `CS/C(N)=N/N=C/c1ccc([N+](=O)[O-])cc1`, the Potency was inconclusive [activator, single point]. For `N#CCCN1CCN(C(=S)c2ccc(-c3ccc(Cl)cc3)o2)CC1`, the Potency was active: 12.6 µM. For `CCn1c2ccccc2c2cc(NC(=O)C/C(C)=N/NC(=O)c3ccccc3N)ccc21`, the Potency was inconclusive [activator, partial curve]. With `Cc1ccc(C(=O)NCc2ccccc2)cc1NC(=O)c1nsc2ccccc12` the Potency was inconclusive [activator, partial curve, poor fit]. With `COc1ccc2c(-c3ccccc3)cc(=S)[nH]c2c1` the Potency was inconclusive [activator, single point]. For `CCc1ccc(-c2nnn(CCC(=O)OC)n2)cc1`, the Potency was active: 15.8 µM. In the case of `NC(=S)N/N=C/c1cccc(O)c1O`, the Potency is reported as inconclusive [activator, single point]. For `CC(C)c1ccc(NC(=O)c2cc(-c3cc(F)ccc3OCC3CCCO3)n[nH]2)cc1` (configuration not stated), the Potency was inconclusive [activator, full curve, poor fit]. In the case of `Cc1ccc(NC(=O)c2c([N+](=O)[O-])c(C(C)(C)C)nn2C)c(C)c1`, the Potency is reported as inconclusive [activator, partial curve]. With `COc1ccc(Br)cc1/C=C/C(=O)c1ccc(NC(C)=O)cc1` the Potency was active: 17.8 µM. With `COc1ccc(C(=O)NCCSc2ccc(C)cc2)cc1` the Potency was inconclusive [activator, full curve]. For `CC(=O)Nc1cccc(C(=O)OCc2ccc([N+](=O)[O-])cc2)c1`, the Potency was inconclusive [activator, partial curve]. With `CCOC(=O)[C@@H]1[C@H]2COc3cc(OC)ccc3[C@H]2N2C(=O)N(c3ccc(C(F)(F)F)cc3)C(=O)[C@]12C` the growth rescue (activation) was inconclusive: -89.9% [activator]. In the case of `COc1ccccc1N1CCN(C(=O)CCNS(=O)(=O)c2ccc(Br)s2)CC1`, the Potency is reported as active: 22.4 µM. In the case of `O=C(CNC(=O)c1ccccc1)OCc1cc(=O)n2nc(C3CC3)sc2n1`, the Potency is reported as “inactive”. For `CN(CCc1ccccc1)C(c1ccnc2ccccc12)c1nnnn1-c1ccc2c(c1)OCCO2` (configuration not stated), the Potency was active: 35.5 µM. For `O=C(COc1ccc2c3c(c(=O)oc2c1)CCC3)N1CCN(c2ccccc2)CC1`, the Potency was inconclusive [activator, partial curve]. In the case of `COc1ccc(Cn2cc(CN3CCc4onc(-c5ccccc5OC)c4C3=O)nn2)cc1`, the Potency is reported as inconclusive [activator, partial curve, poor fit]. In the case of `CCOC(=O)c1cnc(-n2cc(C)cn2)nc1Nc1ccccc1OCC`, the Potency is reported as active: 20 µM. For `N#Cc1ccccc1S(=O)(=O)N1CCN(Cc2c(O)ccc3ccccc23)CC1`, the Potency was inconclusive [activator, partial curve, poor fit]. In the case of `Cc1ccc(NC(=O)C(=O)c2c(-c3ccccc3)cc3ccccn23)cc1S(=O)(=O)N1CCOCC1`, the Potency is reported as inconclusive [activator, single point]. For `Cc1ccc[n+](CC(=O)Nc2ccc([N+](=O)[O-])cc2)c1`, the Potency was active: 8.91 µM. In the case of `CSc1cccc(NC(=O)CSc2ccc(Cl)cc2)c1`, the Potency is reported as inconclusive [activator, partial curve]. In the case of `Cc1cccc(C(=O)OCC(=O)N(C)CC(=O)Nc2ccc(Cl)c(C(F)(F)F)c2)c1`, the Potency is reported as inconclusive [activator, single point]. In the case of `CCOC(=O)c1noc2ncnc(NCc3ccccc3OC)c12`, the Potency is reported as active: 28.2 µM. For `O=C(Nc1ccccc1F)n1ncc2cc(Cl)ccc21`, the Potency was “inactive”. For `CC(C)c1ccc2oc(=O)cc(CN3CCCCC3)c2c1`, the Potency was “inactive”. In the case of `O=C(CCC1N=C2c3ccccc3N=C(SCC(=O)Nc3ccc(F)cc3)N2C1=O)NCc1cccs1` (configuration not stated), the Potency is reported as active: 35.5 µM. In the case of `Cc1nc2c(O)c3c(c(O)c2nc1C)C1C=CC3CC1`, the Potency is reported as active: 12.6 µM. For `Cc1nn2c(Nc3ccccc3)c3c(nc2c1-c1ccccc1)CCC3`, the Potency was inconclusive [activator, partial curve].

Source: PubChem BioAssay AID652104 (National Center for Advancing Translational Sciences (NCATS), 2013)
Potency is read from the fitted curve at half-maximal effect; tags tell the direction and shape of the fitted curve.
